Measurements reported in the supplement of paper PMC12217912.
This is one part of the list. Sequences were assembled here from the parent chain. Inactive controls read about 0.05.

B1: TEV protease; numbered along this chain (parent)
chain: MGESLFKGPRDYNPISSSICHLTNESDGHTTSLYGIGFGPFIITNKHLFRRNNGTLVVQSLHGVFKVKDTTTLQQHLVDGRDMIIIRMPKDFPPFPQKLKFREPQREERICLVTTNFQTKSMSSMVSDTSCTFPSGDGIFWKHWIQTKDGQCGSPLVSTRDGFIVGIHSASNFTNTNNYFTSVPKNFMELLTNQEAQQWVSGWRLNADSVLWGGHKVFMVKPEEPFQPVKEATQL

Variants of: B1
Test: raw area under fraction-flipped curve 0-4 h after induction (AUC4h, not background-subtracted), DNA-recorder readout of cleavage of the substrate (dimensionless); higher = more cleavage of the substrate by the protease variant
Details: temperature: 34 °C; time window: 0-4 h after rhamnose induction
Description: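 In vivo DNA recorder in E. coli TOP10(DE3) ΔrhaA at 34 °C. Each TEVp single-site mutant (parent TEVp 0) is paired with a single-site variant of the 7-mer TEVs (canonical ENLYFQ|S). The substrate sits between flexible linkers in a Bxb1-sfGFP-TEVs-SsrA fusion, so cleavage stabilises Bxb1 and speeds flipping of a recombination array, read by NGS. The value is the raw area under the fraction-flipped curve over 0-4 h after rhamnose induction (AUC4h), with ≥20 reads per time point. It is not background-subtracted; inactive controls average about 0.047.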
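Note: Bxb1 expression induced with 0.2% (w/v) L-rhamnose at OD600 near 0.5, cultures sampled hourly, flipped fraction per protease–substrate barcode pair counted by paired-end Illumina sequencing.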

Variant | area with substrate ENLAFQS | area with substrate ENLCFQS | area with substrate ENLDFQS | area with substrate ENLEFQS | area with substrate ENLFFQS | area with substrate ENLKFQS | area with substrate ENLLFQS | area with substrate ENLNFQS | area with substrate ENLSFQS | area with substrate ENLVFQS | area with substrate ENLHFQS | area with substrate ENLMFQS | area with substrate ENLPFQS | area with substrate ENLRFQS | area with substrate ENLQFQS | area with substrate ENLGFQS | area with substrate ENLIFQS | area with substrate ENLWFQS | area with substrate ENLTFQS
MGESLFKGPRDYNPISSSICHLTNESDGHTTSLYGIGFGPFIITNKHLFRRNNGTLVVQSLHGVFKVKDTTTLQQHLVDGRDMIIIRMPKDFPPFPQKLKFREPIREERICLVTTNFQTKSMSSMVSDTSCTFPSGDGIFWKHWIQTKDGQCGSPLVSTRDGFIVGIHSASNFTNTNNYFTSVPKNFMELLTNQEAQQWVSGWRLNADSVLWGGHKVFMVKPEEPFQPVKEATQL [Q105I] | 0.0673 | 0.107 | 0.0634 | 0.0571 | 0.0581 | 0.053 | 0.0688 | 0.0804 | 0.0653 | 0.0844 | – | – | – | – | – | – | – | – | –
MGESLFKGPRDYNPISSSICHLTNESDGHTTSLYGIGFGPFIITNKHLFRRNNGTLVVQSLHGVFKVKDTTTLQQHLVDGRDMIIIRMPKDFPPFPQKLKFRTPQREERICLVTTNFQTKSMSSMVSDTSCTFPSGDGIFWKHWIQTKDGQCGSPLVSTRDGFIVGIHSASNFTNTNNYFTSVPKNFMELLTNQEAQQWVSGWRLNADSVLWGGHKVFMVKPEEPFQPVKEATQL [E103T] | 0.0767 | 0.0554 | 0.0609 | – | 0.0681 | 0.0746 | – | 0.0661 | – | – | 0.0637 | 0.0801 | 0.0601 | 0.0885 | – | – | – | – | –
MGESLFKGPRDYNPISSSICHLTNESDGHTTSLYGIGFGPFIITNKHLFRRNNGTLVVQSLHGVFKVKDTTTLQQHLVDGRDMIIIRMPKDFPPFPQKLKFREPQREERICLMTTNFQTKSMSSMVSDTSCTFPSGDGIFWKHWIQTKDGQCGSPLVSTRDGFIVGIHSASNFTNTNNYFTSVPKNFMELLTNQEAQQWVSGWRLNADSVLWGGHKVFMVKPEEPFQPVKEATQL [V113M] | 0.0631 | – | 0.0598 | 0.0749 | 0.0959 | – | – | 0.0751 | – | – | 0.0706 | 0.0324 | 0.0388 | 0.0642 | 0.0805 | – | – | – | –
MGESLFKGPRDYNPISSSICHLTNESDGHTTSLYGIGFGPFIITNKHLFRRNNGTLVVQSLHGVFKVKDTTTLQQHLVDGRDMIIIRMPKDFPPFPQKLKFREPQREERICLSTTNFQTKSMSSMVSDTSCTFPSGDGIFWKHWIQTKDGQCGSPLVSTRDGFIVGIHSASNFTNTNNYFTSVPKNFMELLTNQEAQQWVSGWRLNADSVLWGGHKVFMVKPEEPFQPVKEATQL [V113S] | 0.0491 | 0 | 0.044 | – | 0.063 | 0.0692 | 0.0558 | 0.0585 | – | 0.108 | 0.0419 | 0.0566 | 0.0328 | – | 0.0561 | 0.0638 | 0.0579 | 0.0469 | –
MGESLFKGPRDYNPISSSICHLTNESDGHTTSLYGIGFGPFIITNKHLFRRNNGTLVVQSLHGVFKVKDTTTLQQHLVDGRDMIIIRMPKDFPPFPQKLKFREPQREERKCLVTTNFQTKSMSSMVSDTSCTFPSGDGIFWKHWIQTKDGQCGSPLVSTRDGFIVGIHSASNFTNTNNYFTSVPKNFMELLTNQEAQQWVSGWRLNADSVLWGGHKVFMVKPEEPFQPVKEATQL [I110K] | 0.0551 | 0.069 | 0.0593 | 0.0627 | 0.0476 | 0.0988 | – | 0.0525 | – | 0.0449 | 0.0596 | – | 0.0504 | – | – | – | – | 0.0533 | 0.0516
MGESLFKGPRDYNPISSSICHLTNESDGHTTSLYGIGFGPFIITNKHLFRRNNGTLVVQSLHGVFKVKDTTTLQQHLVDGRDMIIIRMPKDFPPFPQKLKFREPQSEERICLVTTNFQTKSMSSMVSDTSCTFPSGDGIFWKHWIQTKDGQCGSPLVSTRDGFIVGIHSASNFTNTNNYFTSVPKNFMELLTNQEAQQWVSGWRLNADSVLWGGHKVFMVKPEEPFQPVKEATQL [R106S] | 0.0611 | 0.0679 | 0.0546 | 0.0647 | 0.101 | 0.0733 | – | – | 0.0703 | – | 0.0673 | – | – | 0.0698 | 0.101 | – | 0.109 | 0.0581 | –
MGESLFKGPRDYNPISSSICHLTNESDGHTTSLYGIGFGPFIITNKHLFRRNNGTLVVQSLHGVFKVKDTTTLQQHLVDGRDMIIIRMPKDFPPFPQKLKFREPQEEERICLVTTNFQTKSMSSMVSDTSCTFPSGDGIFWKHWIQTKDGQCGSPLVSTRDGFIVGIHSASNFTNTNNYFTSVPKNFMELLTNQEAQQWVSGWRLNADSVLWGGHKVFMVKPEEPFQPVKEATQL [R106E] | 0.0616 | 0.0999 | 0.0671 | 0.0688 | 0.0996 | 0.0785 | 0.0804 | 0.0608 | 0.0734 | – | 0.0735 | 0.0723 | 0.0592 | 0.0773 | 0.102 | – | 0.0805 | – | –
MGESLFKGPRDYNPISSSICHLTNESDGHTTSLYGIGFGPFIITNKHLFRRNNGTLVVQSLHGVFKVKDTTTLQQHLVDGRDMIIIRMPKDFPPFPQKLKFREPQREERIHLVTTNFQTKSMSSMVSDTSCTFPSGDGIFWKHWIQTKDGQCGSPLVSTRDGFIVGIHSASNFTNTNNYFTSVPKNFMELLTNQEAQQWVSGWRLNADSVLWGGHKVFMVKPEEPFQPVKEATQL [C111H] | 0.0587 | 0.0654 | – | – | 0.086 | 0.0745 | – | 0.0687 | 0.0823 | 0.0862 | – | – | – | – | – | – | 0.0839 | 0.0697 | –
MGESLFKGPRDYNPISSSICHLTNESDGHTTSLYGIGFGPFIITNKHLFRRNNGTLVVQSLHGVFKVKDTTTLQQHLVDGRDMIIIRMPKDFPPFPQKLKFMEPQREERICLVTTNFQTKSMSSMVSDTSCTFPSGDGIFWKHWIQTKDGQCGSPLVSTRDGFIVGIHSASNFTNTNNYFTSVPKNFMELLTNQEAQQWVSGWRLNADSVLWGGHKVFMVKPEEPFQPVKEATQL [R102M] | 0.0827 | 0.0609 | 0.052 | 0.0597 | – | 0.0562 | 0.0615 | – | 0.0633 | – | – | 0.0663 | 0.0599 | – | 0.0477 | – | – | 0.0569 | –
